In the BET-seq Pho4 binding data (Le et al. 2018):
The other results are listed elsewhere or left out. These are noisy estimates, calculated here from bound and input reads.

target: T1, Pho4 (S. cerevisiae) (UniProt P07270); assay: relative binding free energy (BET-seq); higher = weaker binding; details: reference: library average
T1 sequence: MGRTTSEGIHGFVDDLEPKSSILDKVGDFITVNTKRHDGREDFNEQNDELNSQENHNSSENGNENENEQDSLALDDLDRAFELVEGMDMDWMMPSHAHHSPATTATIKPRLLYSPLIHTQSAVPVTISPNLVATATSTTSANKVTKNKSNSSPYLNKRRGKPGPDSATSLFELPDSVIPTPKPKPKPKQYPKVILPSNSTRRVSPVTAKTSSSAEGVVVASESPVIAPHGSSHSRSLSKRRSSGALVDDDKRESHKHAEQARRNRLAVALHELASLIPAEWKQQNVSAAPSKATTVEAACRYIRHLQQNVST

Sequence	relative binding free energy [kcal/mol]
GGGGACACGTGAGTGG	0.24
GTTGACACGTGAGAGG	0.28
TTTCTCACGTGAGCTT	0.32
ACATTCACGTGTTGTT	0.25
TGGTTCACGTGGCGTT	0.21
GGATTCACGTGGGCCT	0.15
TAGGGCACGTGAGAAT	0.2
TCATTCACGTGATGGG	0.55
AAGGGCACGTGTTAAT	-0.08
GGTTCCACGTGGGAGG	0.08
CGTGCCACGTGGCGGG	-0.24
AGTGTCACGTGGCTTA	-0.11
GGGGTCACGTGAATGT	0.38
AGGGTCACGTGGTCTA	0.02
GATGGCACGTGTAAAT	0.1
CAGTGCACGTGGGTGT	-0.24
TGCTGCACGTGCGTGA	-0.07
TGGGCCACGTGCCGTG	-0.17
AGAGACACGTGGGTCT	-0.14
CGATTCACGTGGGGCG	0.15
GCGTGCACGTGATTAT	0.21
GTTGTCACGTGCGCAG	0
AGTGACACGTGTGAGA	0.12
CGTGGCACGTGTCGTC	0.04
TGTTGCACGTGACGTT	-0.01

Sequence	relative binding free energy [kcal/mol]
TGCTGCACGTGAAAGT	0.15
AGCTGCACGTGGGTGG	-0.15
TATGCCACGTGTGGGT	-0.08
AGCTTCACGTGATATG	0.31
AGAGGCACGTGTGGTT	-0.02
AGGCTCACGTGATGGT	0.26
AGCTACACGTGGTGGG	-0.03
CTAGACACGTGTGTTG	-0.04
GGTGGCACGTGAGTTC	0.2
ATTATCACGTGAGAGG	0.35
TTTCGCACGTGGAGTA	0.05
GTAAGCACGTGCGTGT	-0.15
TTTGGCACGTGTTATG	-0.01
GGATACACGTGTGGGT	0.11
AGTCGCACGTGATCGG	0.15
TAACGCACGTGGGTTA	-0.23
TCGCTCACGTGTGTTG	0.23
AAGGTCACGTGTGGGA	0.18
TCTTGCACGTGCTTTT	-0.01
GCGATCACGTGATTGT	0.5
GTGAGCACGTGTTGCA	-0.1
ATTGTCACGTGTTACA	0.06
ATTCACACGTGTATGG	0.16
GAGGTCACGTGTATTA	0.36
AAGTTCACGTGCAGTG	0.22

Sequence	relative binding free energy [kcal/mol]
GTTTGCACGTGGGTAA	-0.01
GAGGACACGTGAGGTC	0.32
TAAGTCACGTGGCATA	0.11
AGTGTCACGTGACCGG	0.15
TGGAGCACGTGTCTGT	-0.2
TGGAGCACGTGTGGGC	-0.04
AGGGTCACGTGATAGG	0.23
CGAGACACGTGGTGTT	0.01
AAGTTCACGTGAGAGG	0.27
CCGGGCACGTGATGGT	0.01
CGTCGCACGTGGTAGG	0.01
GGGAACACGTGCGAGT	0.07
ATAGTCACGTGAGTCG	0.12
GGGGACACGTGGTGTC	-0.03
TAGGTCACGTGATCTG	0.1
ATGGACACGTGGATTG	0.02
GGCTTCACGTGAGTAG	0.5
TGGCACACGTGATTGG	0.15
GTTTACACGTGTGCGC	0.28
GTTCGCACGTGGGTTT	-0.12
CTTTTCACGTGGGCTT	0.19
AGGGTCACGTGGAAGA	0.01
TTAGGCACGTGTTATT	-0.18
TGGTACACGTGAGTGT	0.24
TGTGGCACGTGACGCT	-0.05

Sequence	relative binding free energy [kcal/mol]
TGTGGCACGTGGCAAG	-0.1
AATTACACGTGGTTTT	-0.01
AATGCCACGTGGTTGA	0.01
AGTAGCACGTGGATAT	-0.03
GTGGCCACGTGGATAG	-0.1
TTAATCACGTGTCGAT	0.09
AAGTCCACGTGATGTG	0.21
TGGGACACGTGGGGCG	-0.12
TGAGTCACGTGCTGGC	0.13
GAAATCACGTGTCGGG	0.23
ATTAGCACGTGGGGTA	-0.3
TTAAACACGTGTGGCT	0.03
AAGGACACGTGCGTGT	-0.03
TTTATCACGTGGAGTT	0.21
TAGTGCACGTGTGAGC	-0.04
AGTAACACGTGTTGTA	-0.1
TGAGGCACGTGGATAG	-0.16
TGTGACACGTGTATTT	0
CGGTTCACGTGTTTCG	0.3
TCGGGCACGTGGTTTT	-0.06
GGTTGCACGTGTAATA	-0.02
GGGTGCACGTGTATAC	-0.05
GGGCGCACGTGGGGCC	-0.17
GTGTGCACGTGTGTCA	0.03
GACGTCACGTGAGGGA	0.31

Sequence	relative binding free energy [kcal/mol]
AAGTACACGTGGGAGG	-0.15
GTCAACACGTGGGGTC	0.13
ATTGCCACGTGGCGGT	-0.14
ATTGTCACGTGTCCTT	0.06
GGTGTCACGTGAGGTA	0.21
TGTGACACGTGGCGAT	-0.19
TTTAACACGTGAGAGT	0.32
TGGTACACGTGAAGGG	0.21
ACGGTCACGTGGAATA	0.42
AGGTTCACGTGGGGAT	0.18
GGCTGCACGTGATTGT	0.31
GTCAGCACGTGTAGAG	0.18
TGAGTCACGTGGCTAT	0.07
TGAGTCACGTGTTTTG	0.08
TCTGCCACGTGTGGTT	0.05
TATCACACGTGGGGAT	0
TAGGGCACGTGCTAGG	-0.23
AGCTACACGTGTTGGT	0.11
ACTAGCACGTGGGAGG	-0.21
TGACACACGTGGAGGG	-0.01
GTTAGCACGTGGTACA	0
TTGGACACGTGTAGCG	0.01
TATAGCACGTGGCATG	-0.16
TGGGACACGTGGGAGT	-0.07
GTGTGCACGTGGGCTG	-0.19

Sequence	relative binding free energy [kcal/mol]
AGGTTCACGTGGATGG	0.24
TCGTCCACGTGGGGGT	-0.13
GTGTACACGTGGGGCT	-0.01
TTAATCACGTGTGAGG	0.28
CGATTCACGTGGAAGT	0.38
GTTGGCACGTGGGCCG	-0.11
ATTGTCACGTGACAGG	0.26
AATAGCACGTGGGTTA	-0.31
CGAATCACGTGGTAGG	0.07
AAGTTCACGTGGGCCT	0.24
TGTCGCACGTGAATAG	0.29
AACAACACGTGGGTGG	-0.16
CGTGTCACGTGGTTGG	0.09
TCGGGCACGTGTGCGG	-0.19
TATCGCACGTGGGATA	0.02
TTTTACACGTGTGCGG	0.15
CGTGTCACGTGATGTG	0.13
GTAGCCACGTGGAGTG	-0.04
TTTGTCACGTGGGAGT	0.04
TATTTCACGTGTCCTG	0.56
AAAGTCACGTGGAATG	0.2
